Results published in the supplement of paper PMC8728848.
The other results are listed elsewhere or left out.

How the values were obtained:
Experiment in all cases: glycan array binding signal (z-score within array); higher = stronger binding
Conditions in all cases: glycan notation: IUPAC condensed, linker removed
Gal(a1-3)Gal(b1-4)GlcNAc = molecular target: Gal(a1-3)Gal(b1-4)GlcNAc
In short: (§1)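 The binding signal is a Z-score computed within each array and averaged over linkers. Arrays of the same protein sequence at different concentrations or buffers were also averaged together. Data originate from 3228 arrays in the Consortium for Functional Glycomics database, kept only where the protein sequence was available.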

[1] = molecular target: Gal(a1-3)Gal(b1-4)GlcNAc(b1-2)Man
In short: as §1

[2] = molecular target: Gal(a1-3)Gal(b1-4)GlcNAc(b1-2)Man(a1-3)[Gal(a1-3)Gal(b1-4)GlcNAc(b1-2)Man(a1-6)]Man(b1-4)GlcNAc(b1-4)GlcNAc
In short: as §1

[3] = molecular target: Gal(a1-3)Gal(b1-4)GlcNAc(b1-3)GalNAc
In short: as §1

[4] = molecular target: Gal(a1-3)Gal(b1-4)GlcNAc(b1-6)GalNAc
In short: as §1

[5] = molecular target: Gal(a1-3)Gal(b1-4)[Fuc(a1-3)]GlcNAc
In short: as §1

[6] = molecular target: Gal(a1-3)Gal(b1-4)[Fuc(a1-3)]GlcNAc(b1-2)Man(a1-3)[Gal(a1-3)Gal(b1-4)[Fuc(a1-3)]GlcNAc(b1-2)Man(a1-6)]Man(b1-4)GlcNAc(b1-4)GlcNAc
In short: as §1

Gal(a1-3)GalNAc = molecular target: Gal(a1-3)GalNAc
In short: as §1

[7] = molecular target: Gal(a1-3)[Gal(a1-4)]Gal(b1-4)GlcNAc
In short: as §1

[8] = molecular target: Gal(a1-4)Gal(b1-3)GlcNAc(b1-2)Man(a1-3)[Gal(a1-4)Gal(b1-3)GlcNAc(b1-2)Man(a1-6)]Man(b1-4)GlcNAc(b1-4)GlcNAc
In short: as §1

Gal(a1-4)Gal(b1-4)Glc = molecular target: Gal(a1-4)Gal(b1-4)Glc
In short: as §1

Gal(a1-4)Gal(b1-4)GlcNAc = molecular target: Gal(a1-4)Gal(b1-4)GlcNAc
In short: as §1

[9] = molecular target: Gal(a1-4)Gal(b1-4)GlcNAc(b1-2)Man(a1-3)[Gal(a1-4)Gal(b1-4)GlcNAc(b1-2)Man(a1-6)]Man(b1-4)GlcNAc(b1-4)GlcNAc
In short: as §1

[10] = molecular target: Gal(a1-4)Gal(b1-4)GlcNAc(b1-3)Gal(b1-4)Glc
In short: as §1

Gal(a1-4)GlcNAc = molecular target: Gal(a1-4)GlcNAc
In short: as §1

Gal(a1-6)Glc = molecular target: Gal(a1-6)Glc
In short: as §1

Gal(b1-2)Gal = molecular target: Gal(b1-2)Gal
In short: as §1

Gal(b1-3)Gal = molecular target: Gal(b1-3)Gal
In short: as §1

Gal(b1-3)Gal(b1-4)GlcNAc = molecular target: Gal(b1-3)Gal(b1-4)GlcNAc
In short: as §1

Gal(b1-3)GalNAc = molecular target: Gal(b1-3)GalNAc
In short: as §1

[11] = molecular target: Gal(b1-3)GalNAc(a1-3)[Fuc(a1-2)]Gal(b1-4)Glc
In short: as §1

[12] = molecular target: Gal(b1-3)GalNAc(a1-3)[Fuc(a1-2)]Gal(b1-4)GlcNAc
In short: as §1

Gal(b1-3)GalNAc(b1-3)Gal = molecular target: Gal(b1-3)GalNAc(b1-3)Gal
In short: as §1

[13] = molecular target: Gal(b1-3)GalNAc(b1-3)Gal(a1-4)Gal(b1-4)Glc
In short: as §1

[14] = molecular target: Gal(b1-3)GalNAc(b1-4)Gal(b1-4)Glc
In short: as §1

[15] = molecular target: Gal(b1-3)GalNAc(b1-4)[Neu5Ac(a2-3)]Gal(b1-4)Glc
In short: as §1

Gal(b1-3)GlcNAc = molecular target: Gal(b1-3)GlcNAc
In short: as §1

[16] = molecular target: Gal(b1-3)GlcNAc(a1-3)Gal(b1-4)GlcNAc
In short: as §1

[17] = molecular target: Gal(b1-3)GlcNAc(a1-6)Gal(b1-4)GlcNAc
In short: as §1

Gal(b1-3)GlcNAc(b1-2)Man = molecular target: Gal(b1-3)GlcNAc(b1-2)Man
In short: as §1

B1: Cp ZmpB (Clostridium perfringens), Q0TR08 (protein)
chain: MNKRKIAAIILATMITNLSATTIDVLAQELNTKNNSKVEVSHDDESHQARVSKFDLYNSDKLDAYNQEFQVSRSNIKSINNNGGKYNSSTIDKAIDGNLETHWETGKPNDANFTNEVVVTFNEITNIDRIVYSARRDSARGKGFAKEFEIYASLKDEGDDFNLVSSGEYTESTRDLVEIKFNPTDFKRLKFKFKKADQNWASAAEFMFYKEDKLNEKFNGLFTDSSMNKVSEEFNTLEKLNAFENELKDHPIYDLYKEGLNNARAILTETSENPTKATLGQITYNLNDDYNNQYRMPYKNIKAIKNNGRHYAAQNIEKAIDNDVNTYWETGTLNSSSFNNEVEVEFNDLVTLDRIVYGSRQSDLKGFAEEVYIYASRTSKGDTYKLVATGAHEATKGLVEAKFEPTEFKRVKFKFKKSKQNSATLNELMFYKPDEVYSSIPKLFTDGTMSELSEEFNSLEKINAFKEKAKNHPLYNDFNETIELAESLISNPRKEDVLELEMRGDSISEAKKRKVWNFQDWQITGLSARAGDKITVYVDVAEGDPTPTLLYKQSLTQHGGATSFQLKPGKNEITIPEINYESNGIPKDVIQGGDLFFTNYKSDSQKRAPKVRIEGASKYPVFILGKSDENEVMKELEAYVEKIKAEPKTTPNIFAVSSNKSLEFVQATYALDWYKKNNKTPKYTAEQWDQYIADAMGFWGFDNSKDVNSDFNFRIMPMVKNLSGGAFMNAGNGVIGIRPGNQDAILAANKGWGVAHELGHNFDTGGRTIVEVTNNMMPLFFESKYKTKTRITDQNIWENNTYPKVGLDDYSNNELYNKADSTHLAQLAPLWQLYLYDNTFYGKFERQFRERDFGNKNREDIYKSWVVAASDAMELDLTEFFARHGIRVDDKVKEDLAKYPKPDKKIYYLNDLAMNYKGDGFTENAKVSVSTSGSNGNIKLSFSVDDENKDNILGYEIRRDGKYVGFTSNDSFVDTKSNLDEDGVYVVTPYDRKLNTLNPIEVNALQPTLSVNPVITLALGEEFNEEEYIVAKDIKGNSLSESVKVKSSNVNTSKVGEYEVLYSLEDSKGNEYTKTSKVNVVSRKEYMSDLTPKQSSNGWGTVRKDKSISGGVIGLTRDGDFVDYNKGLGLHSNAEYVYDLEGKDYDYFESYVGVDKAMSSRPASSVIFKVLVDGEEKFNSGVMRSTTPQKYVKVDVKNAKELKLIVNDAGDGDSSDHASFGDAKLATLSSKPIIKGENLAYSMDEKVDLMKGITATDIEDGNITSKVQIKSSDFVEGKSGIFTVVYSVTDSDGLTSECSRTIAVTDKETQLSDLNWKSATIGSGSVRKDRAVSGNQIRLLNEDNSVETFAKGIGTHSYSEIVYNSEGYDIFDTWVGIDRHVADKKVSSVKFKVYVDGELKAETDVMRIDTPKKRLVVDVRNSKEIKLVVDVADNGNNWDHADWADAKFRNLAEYDASELNKAIEEAKKLDLNNYTEESSEALKNAISKGEEALLSKDKETINSALEELNKEMNSLVKVDLNAVINIPDKYLLKSIQNQLNKTGDITLGDMYSLTTLTLSGVEDLTGLENAKNLETLNMDYNEVKDLRPLSKLKKLNTLNAQEQFIAAGELKPSNGKVIGDSKVYNREGKNVAKTIRVVDKNGNTILEQDAKDEFTINTKDLSSGLYGVHVLFEDEGFSGVMFYLFNV
glycan array binding signal (z-score) (Gal(a1-3)Gal(b1-4)GlcNAc): -0.193 | glycan array binding signal (z-score) [1]: -0.163 | glycan array binding signal (z-score) [2]: 0.108 | glycan array binding signal (z-score) [3]: -0.114 | glycan array binding signal (z-score) [4]: -0.014 | glycan array binding signal (z-score) [5]: 0.119 | glycan array binding signal (z-score) [6]: 0.555 | glycan array binding signal (z-score) (Gal(a1-3)GalNAc): -0.046 | glycan array binding signal (z-score) [7]: -0.263 | glycan array binding signal (z-score) [8]: -0.252 | glycan array binding signal (z-score) (Gal(a1-4)Gal(b1-4)Glc): -0.209 | glycan array binding signal (z-score) (Gal(a1-4)Gal(b1-4)GlcNAc): -0.181 | glycan array binding signal (z-score) [9]: -0.254 | glycan array binding signal (z-score) [10]: 0.228 | glycan array binding signal (z-score) (Gal(a1-4)GlcNAc): 0.252 | glycan array binding signal (z-score) (Gal(a1-6)Glc): -0.02 | glycan array binding signal (z-score) (Gal(b1-2)Gal): 0.053 | glycan array binding signal (z-score) (Gal(b1-3)Gal): 0.414 | glycan array binding signal (z-score) (Gal(b1-3)Gal(b1-4)GlcNAc): 0.081 | glycan array binding signal (z-score) (Gal(b1-3)GalNAc): 0.205 | glycan array binding signal (z-score) [11]: 0.587 | glycan array binding signal (z-score) [12]: -0.189 | glycan array binding signal (z-score) (Gal(b1-3)GalNAc(b1-3)Gal): 0.366 | glycan array binding signal (z-score) [13]: -0.28 | glycan array binding signal (z-score) [14]: -0.231 | glycan array binding signal (z-score) [15]: 0.078 | glycan array binding signal (z-score) (Gal(b1-3)GlcNAc): 0.462 | glycan array binding signal (z-score) [16]: -0.422 | glycan array binding signal (z-score) [17]: 0.114 | glycan array binding signal (z-score) (Gal(b1-3)GlcNAc(b1-2)Man): -0.099
